These results are taken from patent publication EP4628104A1, “ANTI-CLDN18.2 ANTIBODY-DRUG CONJUGATE, AND PHARMACEUTICAL COMPOSITION THEREOF AND USE THEREOF” (priority 2022, dated 2024).

Data set [1] in a line: Aggregate verification by gel (SEC) chromatography. It counts as physicochemical. The note with it: peak area percentage, 280 nm, ADCs prepared in Example 3. How it is done: Components of the anti-CLDN18.2 antibody-drug conjugates prepared in Example 3 were separated using a gel chromatographic column. Elution was performed using a neutral buffer containing 10% isopropanol as the mobile phase. The components were eluted sequentially in descending order according to their molecular weights. The gel chromatographic column used was an ACQUITY UPLC Protein BEH SEC Column 200Å, 1.7 µm, 4.6 × 300 mm, and the column temperature was 25 °C. The mobile phase was 50 mM phosphate buffered saline-200 mM sodium chloride-10% isopropanol at pH 7.0 (12.53 g of disodium hydrogen phosphate dodecahydrate, 2.33 g of sodium dihydrogen phosphate dihydrate, and 11.69 g of sodium chloride were weighed, about 800 mL of ultrapure water was added, and the mixture was stirred until complete dissolution; 100 mL of isopropanol was added, ultrapure water was added to bring the volume to 1000 mL, and the mixture was mixed uniformly and then filtered through a 0.22 µm filter). 20 µg of the anti-CLDN18.2 antibody conjugates were precisely taken and injected into a liquid chromatograph, and the detection was performed at the wavelength of 280 nm. The flow rate was 0.3 mL/min, and isocratic elution was performed for 15 min.
Data were processed, and the results were quantitatively analyzed using the area normalization method. The peak area percentages of the aggregate, the monomer, and the low molecular weight impurities of the anti-CLDN18.2 antibody-drug conjugates were calculated. The aggregate peak appeared before the main peak, the monomer peak was the main peak, and the low molecular weight impurity peaks appeared after the main peak. The content proportions of the monomer, the aggregate, and the low molecular weight impurities of the anti-CLDN18.2 antibody-drug conjugates are shown in Table 1. Table 1. The content proportions of the monomer, the aggregate, and the low molecular weight impurities of the anti-CLDN18.2 antibody-drug conjugates

A further data set relates to NIH-3T3-CLDN18.1 cells. Description: Non-specific killing of CLDN18.2-negative cells. In kind it is cell-based, Mouse. The conditions noted are these: up to 20 nM, 96 h; ADCs of Example 5. How it is done:
To detect the non-specific killing effect of the anti-CLDN18.2 antibody-drug conjugates prepared in Example 5 on CLDN18.2-negative cells, the killing activity detection was performed using CLDN18.1-overexpressing NIH-3T3.
cDNA encoding human CLDN18.1 (SEQ ID NO: 66) was obtained by gene synthesis and then subcloned into an expression vector pcDNA3.1. The expression vector was transfected into NIH-3T3 cells according to the instructions of the Lipofectamine 2000 transfection reagent (Thermo, Cat. No. 11668019) to obtain CLDN18.1-overexpressing NIH-3T3 -CLDN18.1.
NIH-3T3-CLDN18.1 cells in the logarithmic growth phase were taken, adjusted to a cell density of 1 × 10^4 cells/mL, and added to a 96-well plate at 100 µL/well. The cells were placed in an incubator at 37 °C with 5% CO2 for adherence culture overnight. The anti-CLDN18.2 antibody-drug conjugate was prepared with a DMEM medium containing 10% FBS. Cells subjected to overnight adherence culture were taken out. […] Then, 180 µL of the solution was pipetted from each well and transferred to an opaque white plate, bubbles were removed, the chemiluminescence value was read, and the viability of the cells was calculated. Viability(%) = (Luminescence value of the experimental group)/(Luminescence value of the control group) × 100% [formula]
Data were analyzed using Graphpad Prism 5.

A further data set concerns U2OS-Luciferase. Description: Bystander effect in mixed culture of positive and negative cells. In kind it is cell-based, Human. The note with it: viability of U2OS-Luciferase negative cells co-cultured with CLDN18.2-overexpressing BxPC-3, 120 h, up to 33.3 nM; ADCs of Example 5. How it is done: CLDN18.2-overexpressing BxPC-3 was selected as positive cells and U2OS stably expressing luciferase (U2OS-Luciferase) was selected as negative cells. These cells were mixed and cultured to detect the bystander effect of the anti-CLDN18.2 antibody-drug conjugates prepared in Example 5.
Positive cells and negative cells in the logarithmic growth phase were taken, both adjusted to a density of 4 × 10^4 cells/mL, and added to a 96-well plate at 50 µL/well. The anti-CLDN18.2 antibody-drug conjugate was subjected to gradient dilution with the McCoy's 5A complete medium (GIBCO, Cat. No. 16600-082) containing 10% FBS and added to the 96-well plate at 50 µL/well. The initial concentration of the anti-CLDN18.2 antibody-drug conjugate is 33.3 nM, with a 5-fold gradient dilution for a total of 8 concentrations. The 96-well plate was incubated in an incubator at 37 °C with 5% CO2 for 120 h. […] The chemiluminescence value was determined using a microplate reader, and the viability of U2OS-Luciferase cells was calculated. Viability(%) = (Luminescence value of the experimental group)/(Luminescence value of the control group) × 100% [formula]
Data were analyzed using GraphPad Prism 5.

The nature of data set [2]: Pharmacokinetic evaluation in rats (total antibodies, ELISA). It counts as in vivo. The conditions noted are these: SD rats, intravenous, 10 mg/kg, Mean ± SD, ADCs of Example 3. The procedure:
SD rats (160-180 g) (source: Laboratory Animal Operation Department, Shanghai Institute for Biomedical and Pharmaceutical Technologies) were randomly divided into 3 groups of 4 rats each, and were intravenously injected with 15F9-DDDXd, hz28G3-1.1-DDDXd, and hz28G3-1.1-DDDXd prepared in Example 3 at a dose of 10 mg/kg, respectively. Before and after the administration, SD rats were all not fasted and had free access to water.
About 0.2 mL of blood was collected from the jugular vein at 30 min, 2 h (± 1 min), 8 h (± 1 min), 24 h (± 5 min), 48 h (± 5 min), 4 d (± 10 min), 7 d (± 10 min), 10 d (± 10 min), 14 d (± 20 min), 21 d (± 20 min), or 28 d (± 20 min) after the administration, anticoagulated with EDTA-K2, and centrifuged at 4 °C for 10 min at 4000 rpm to separate the plasma.
An appropriate volume of the separated plasma was pipetted and diluted with a sample diluent (PBST containing 1% BSA) at a minimum dilution factor of (20-fold). For a sample that required a higher dilution, it was further diluted with a sample diluent containing 5% blank rat plasma. Then, the mixture was vortexed until it was mixed uniformly to obtain the test sample. The quantitative range of the detection method was 19.53125 ng/mL-2500 ng/mL. AffiniPure Goat Anti-Human IgG, F(ab')2 fragment specific (Jackson ImmunoResearch, 109-005-097) was diluted with the PBS buffer (pH 7.4) to a concentration of 1 µg/mL, added to a 96-well plate at 100 µL/well for coating, and incubated at 4 °C overnight. The 96-well plate was washed with PBST (PBS containing 0.5% of Tween-20). Then, the blocking buffer (PBST containing 1% of BSA) was added at 200 µL/well, and the plate was blocked at room temperature for 2-3 h. The blocking buffer was discarded. The diluted standard curve sample, the quality control sample, and the above test sample were added at 100 µL/well, and the mixture was incubated at room temperature for 2 h. After the 96-well plate was washed with PBST, Goat anti-Human Kappa Light Chain Cross-Adsorbed Secondary Antibody, HRP (Thermofisher, A18859) was added according to a volume ratio of 1:10,000, and the mixture was incubated at room temperature for 1 h. After the 96-well plate was washed with PBST, the TMB solution (Tiangen, Cat. No. PA107-01) was added at 100 µL/well, and the mixture was incubated at room temperature for 14 min in the dark. The reaction was stopped with 1 M H2SO4. The absorbance value was read using a Tecan Spark microplate reader at a wavelength of 450 nm/630 nm, and curve fitting was performed using a 4-parameter logistic fit.
Intravenous exposure of the anti-CLDN18.2 antibody-drug conjugates was evaluated by in vivo pharmacokinetics in rats and the mean pharmacokinetic parameters for total antibodies (including antibodies conjugated and unconjugated with cytotoxic drugs) in SD rats of each group were calculated, including drug peak concentration (Cmax), time to peak (Tmax), area under the concentration-time curve (AUC(0-t)), elimination half-life (t1/2), mean residence time (MRT(0-t)), and clearance (CL), as shown in Table 6 below.

B1: hz28G3-1.1-DDDXd (conjugate)
heavy: QVQLVQSGAEVKKPGASVKVSCKTSGYSFTDYLMLWVRQAPGQGLEWMGNINPYYGRTTYALKFKGRVTMTVDRSTSTVYMELSSLRSEDTAVYYCARDGYSLRNAMDYWGQGTLVTVSS[human IgG1 constant region left out here]
light: DIVMTQSPDSLAVSLGERATINCKSSQSLFNSGNQKNYLAWYQQKPGQPPKLLIYGASTRESGVPDRFSGSGSGTDFTLTISSLQAEDVAVYYCQNAHSYPYTFGQGTKVEIKRTVAAPSVFIFPPSDEQLKSGTASVVCLLNNFYPREAKVQWKVDNALQSGNSQESVTEQDSKDSTYSLSSTLTLSKADYEKHKVYACEVTHQGLSSPVTKSFNRGEC
By Cmax is commonly meant the highest concentration seen after dosing. By Tmax is commonly meant the time from dosing to the highest level. For B1, in data set [1], the Aggregate turned out to be 0.80%, the “Low molecular weight impurities” value is recorded as 0.10% and the Monomer is given as 99.10%. The “killing activity against NIH-3T3-CLDN18.1 cells” value with NIH-3T3-CLDN18.1 cells is “no killing activity”. Moreover, the bystander effect entry with U2OS-Luciferase was “significant bystander effect”. Also, in data set [2], the “AUC(0-21d)” value is 573 ± 9.4 µg·days/mL, the CL was 15.8 ± 0.879 mL/day/kg, the maximum concentration (Cmax) stood at 193 ± 6.67 µg/mL and the “MRT(0-21d)” value came to 137 ± 6.19 h. In addition, in data set [2], the Tmax is 0.499 ± 0 h and the t1/2 stood at 163 ± 35.8 h.
